# Experimental data as given in the supplement of paper PMC9446081.
# In all, about 39,000 compounds went through this assay and about 220 (0.56%) showed activity. Some of the results follow.
# Test system: Escherichia coli K-12 BW25113
# Assay: relative growth (OD600 normalised to plate interquartile mean) (fraction); higher = less growth inhibition, active = 0.2 or less
# Details: 50 µM; LB; incubation time: overnight (16-24 h)
# 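Note: static incubation at 37 °C against the wild-type strain, values averaged over two biological replicates.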
row,Compound,relative growth
1,Cc1noc(C)c1NC(=O)N(C)C[C@H]1Oc2ccc(NS(=O)(=O)c3c(C)noc3C)cc2C(=O)N([C@@H](C)CO)C[C@@H]1C,inactive: 1.01
2,C[C@H]1CCCCO[C@@H](CN(C)C(=O)Nc2ccc(C(F)(F)F)cc2)[C@@H](C)CN([C@@H](C)CO)C(=O)c2cc(N(C)C)ccc2O1,inactive: 1.02
3,CCS(=O)(=O)N1Cc2cc(C(=O)NCCOC)nc(-c3cccc(-c4ccncc4)c3)c2[C@@H]1CCO,inactive: 0.98
4,Cc1noc(C)c1S(=O)(=O)N(C)C[C@@H]1Oc2ccc(NC(=O)CCC(F)(F)F)cc2CC(=O)N([C@@H](C)CO)C[C@@H]1C,inactive: 1.01
5,C[C@@H]1CN([C@H](C)CO)C(=O)c2cc(C#CC3(O)CCCC3)cnc2O[C@@H]1CN(C)C(=O)Cc1ccncc1,inactive: 0.987
6,CCCC[C@H](NC(C)=O)C(=O)N[C@@H](CCC(N)=O)C(=O)N[C@@H](Cc1c[nH]cn1)C(=O)N[C@H](Cc1ccccc1)C(=O)N[C@@H](CCCNC(=N)N)C(=O)N[C@H](Cc1c[nH]c2ccccc12)C(=O)NCC(N)=O,inactive: 1.03
7,Cc1ccc(S(=O)(=O)Nc2ccc3c(c2)C(=O)N([C@H](C)CO)C[C@H](C)[C@@H](CN(C)Cc2ccc(C(=O)O)cc2)OCCCC[C@@H](C)O3)cc1,inactive: 0.993
8,Cc1noc(C)c1NC(=O)N(C)C[C@H]1Oc2ccc(NC(=O)Cn3cnnn3)cc2C(=O)N([C@H](C)CO)C[C@H]1C,inactive: 0.967
9,COc1ccc(CN(C)C[C@@H]2Oc3c(NC(=O)CCCCCC(=O)Nc4ccccc4N)cccc3C(=O)N([C@@H](C)CO)C[C@H]2C)cc1,inactive: 0.993
10,C[C@@H]1CN([C@@H](C)CO)S(=O)(=O)c2ccc(C#CCN(C)C)cc2O[C@@H]1CN(C)S(=O)(=O)c1cccc(F)c1,inactive: 1.03
11,Cc1cc(C2CCCCC2)n(O)c(=O)c1.NCCO,active: 0.0534
12,C[C@@H]1CN([C@@H](C)CO)C(=O)Cc2cc(NC(=O)Nc3ccc(C(F)(F)F)cc3)ccc2O[C@H]1CN(C)Cc1ccc(Oc2ccccc2)cc1,inactive: 1.02
13,C[C@@H]1CN([C@@H](C)CO)C(=O)c2cccc(NC(=O)Nc3ccc4c(c3)OCO4)c2O[C@H]1CN(C)C(=O)Nc1cccc2ccccc12,inactive: 1
14,COc1ccc(NC(=O)Nc2ccc3c(c2)C(=O)N([C@H](C)CO)C[C@H](C)[C@H](CN(C)C(=O)Nc2ccccc2)OCCCC[C@@H](C)O3)cc1,inactive: 1.02
15,C[C@@H]1CN([C@H](C)CO)C(=O)c2cc(NC(=O)CCC(F)(F)F)ccc2O[C@@H](C)CCCCO[C@@H]1CN(C)Cc1ccc2c(c1)OCO2,inactive: 1.01
16,CC(=O)N1CCN(C(=O)c2ccc(NCc3ccccc3Cl)c(S(=O)(=O)Nc3cccc(C(F)(F)F)c3)c2)CC1,inactive: 0.981
17,O=C(O)c1ccnc2nc[nH]c12,inactive: 0.997
18,COc1ccc2c3c(n(c2c1)C)[C@@H](CO)N(Cc1ccccc1)C[C@]13CCN(CC1)C(=O)c1ccccc1F,inactive: 1.03

row,Compound,relative growth
1,NC[C@H]1O[C@H](O[C@H]2[C@H](O)[C@@H](O[C@H]3O[C@H](CO)[C@@H](O)[C@H](N)[C@H]3O)[C@H](N)C[C@@H]2N)[C@H](N)C[C@@H]1O,active: 0.0393
2,C[C@H](CO)N1C[C@H](C)[C@H](CN(C)S(=O)(=O)c2ccc(Oc3ccccc3)cc2)OCc2cnnn2CCCC1=O,inactive: 1.04
3,C[C@@H]1CN([C@@H](C)CO)S(=O)(=O)c2ccc(C#Cc3cccnc3)cc2O[C@H]1CN(C)CC1CCOCC1,inactive: 1.01
4,O=C(C[C@H]1C[C@H]2c3cc(NS(=O)(=O)c4ccc(F)cc4)ccc3O[C@H]2[C@H](CO)O1)NC1CCCC1,inactive: 0.974
5,O=C(NCCN1CCOCC1)[C@@H]1c2ccccc2C(=O)N(C2Cc3ccccc3C2)[C@H]1c1ccc(CO)cc1,inactive: 0.985
6,C[C@H](CO)N1C[C@H](C)[C@@H](CN(C)Cc2ccc(Oc3ccccc3)cc2)Oc2ccc(NS(=O)(=O)c3ccccc3)cc2CC1=O,inactive: 0.978
7,C[C@H]1CN([C@@H](C)CO)C(=O)c2cc(NC(=O)Nc3cccc4ccccc34)ccc2O[C@H]1CN(C)C(=O)Nc1ccc(C(F)(F)F)cc1,inactive: 0.997
8,COc1ccc(COCCN2C[C@@H](C)[C@H](CN(C)S(=O)(=O)c3ccc(F)cc3)OCCCC[C@H](C)Oc3ccc(NC(=O)Nc4ccccc4)cc3C2=O)cc1,inactive: 1.01
9,Cc1noc(C)c1NC(=O)Nc1cccc2c1O[C@@H](CN(C)Cc1ccc(Oc3ccccc3)cc1)[C@@H](C)CN([C@H](C)CO)C2=O,inactive: 0.997
10,COc1ccccc1-c1ccc2c(c1)O[C@@H](CN(C)S(=O)(=O)c1ccccc1)[C@@H](C)CN([C@H](C)CO)S2(=O)=O,inactive: 1.04
11,CCc1nc2c(OCC(=O)c3ccc(Cl)cc3Cl)cccn2c1N(C)C(=O)COc1ccccc1,inactive: 1.02
12,Nc1ncnc2c1ncn2C1OC(COP(=O)(O)OP(=O)([O-])OP(=O)([O-])O)C(O)C1O.[Na+].[Na+] (stereo unspecified),inactive: 1.04
13,C[C@H]1CCCCO[C@@H](CN(C)Cc2ccncc2)[C@@H](C)CN([C@@H](C)CO)C(=O)c2cc(NC(=O)Nc3ccccc3)ccc2O1,inactive: 1.01
14,C[C@@H]1CN([C@H](C)CO)C(=O)Cc2cc(NS(=O)(=O)c3cccs3)ccc2O[C@H]1CN(C)Cc1ccc(-c2ccccc2)cc1,inactive: 0.992
15,CC1(C)Cc2c(-c3ccccc3)c(-c3ccc(Cl)cc3)c(CC(=O)O)n2C1,inactive: 1
16,COC(=O)c1cn(C[C@@H](Cc2ccccc2)NC(=O)N[C@H](CO)CCc2oc(C(C)=O)c(C(=O)OC)c2C(=O)OC)nn1,inactive: 1.01
17,C[C@@H]1CCCCO[C@H](CN(C)C(=O)C2CCCCC2)[C@@H](C)CN([C@@H](C)CO)C(=O)c2cc(NS(=O)(=O)c3cccs3)ccc2O1,inactive: 0.998
18,CN(C)C(=O)C[C@H]1CC[C@@H](NC(=O)C2CC2)[C@@H](CO)O1,inactive: 0.993
